Results taken from PubChem BioAssay AID2675 (National Center for Advancing Translational Sciences (NCATS), 2010).
About 100 (0.036%) of roughly 280,000 compounds were called active. The inconclusive results got no clear call from the source; some entries with a clear call stand among them for comparison. Calls follow the shape of the dose curve; as a rule, active = well fitted inhibition curve with a large enough effect in the signal ratio, with a control signal flat (not every such curve was filed as active); inconclusive = small, poorly fitted or top-dose-only effect, or effect the other way, or a change in a side signal; inactive = no such curve, though single readings can be large or run the other way; the % refers to the signal ratio. Potencies beside an inconclusive call are fits to weak or partial responses and may not hold up. A note “side channel” means that the fit belongs to a control or component signal, not to the main read-out.
% is scaled to controls: 0 for no effect and ±100 for the full control effect; potency is read from the fitted curve at half-maximal effect; tags tell the direction and shape of the fitted curve or compound fluorescence and quenching.

What follows are compounds tested against Muscleblind-like protein 1 (Homo sapiens) (UniProt Q9NR56) (assay: qHTS Assay for Inhibitors of MBNL1-poly(CUG) RNA binding). Details: TR-FRET MBNL1-His/biotin-(CUG)12 binding, 665/545 ratio; activity change, negative = inhibition: at 57.5 µM (top of the series).
Chain of UniProt Q9NR56 (Q9NR56 whole entry, looked up): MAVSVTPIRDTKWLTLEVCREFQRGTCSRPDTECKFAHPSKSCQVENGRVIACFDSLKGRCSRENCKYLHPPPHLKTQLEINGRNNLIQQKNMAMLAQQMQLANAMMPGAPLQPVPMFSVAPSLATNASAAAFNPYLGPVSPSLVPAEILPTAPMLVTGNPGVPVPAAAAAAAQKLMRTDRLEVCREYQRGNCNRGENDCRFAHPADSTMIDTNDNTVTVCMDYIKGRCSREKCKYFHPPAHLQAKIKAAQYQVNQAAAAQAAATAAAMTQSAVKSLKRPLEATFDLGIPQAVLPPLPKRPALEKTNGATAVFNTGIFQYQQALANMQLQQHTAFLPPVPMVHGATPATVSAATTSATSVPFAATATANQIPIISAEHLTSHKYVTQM
Summary of the method: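 Ratiometric TR-FRET (665 over 545 nm, excitation 340 nm) tracks disruption of MBNL1-His/biotin-(CUG)12 complex after 60 min at room temperature, with compounds at 92 nM to 58 uM final.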
`Fc1ccccc1N1CCN(C(c2cccs2)c2nnnn2CCc2ccccc2)CC1` (configuration not stated) was tested, and the “activity change, negative = inhibition” value was inactive: -2.05%. With `C[n+]1ccc(/C=C/c2cccs2)cc1` the Potency was inconclusive: 7.94 µM [quencher, partial curve]. With `CN(Cc1ccccc1)C(=O)COC(=O)c1ccc(Cl)c(N)c1` the Potency was inconclusive: 0.316 µM [fluorescent, side channel, partial curve]. `CN(C)S(=O)(=O)c1ccc(C(=O)Nc2nnc(-c3cccs3)o2)cc1` was tested, and the “activity change, negative = inhibition” value was inactive: -0.397%. With `O=C(Nc1ccc2c(c1)OCO2)c1cc(-c2ccc(O)cc2)on1` the Potency was inconclusive: 5.01 µM [inhibitor, full curve, poor fit]. In the case of `Cc1c(C(=O)O)cccc1-n1c(C)cc(/C=N/Nc2ccc([N+](=O)[O-])cn2)c1C`, the Potency is reported as inconclusive: 15.8 µM [quencher, side channel, partial curve]. With `O=C(COc1cccnc1[N+](=O)[O-])NCc1cccs1` the Potency was inconclusive: 31.6 µM [quencher, side channel, single point]. `COc1ccc(C(C)NC(=O)c2cccc([N+](=O)[O-])c2)cc1OC` (configuration not stated) was tested, and the Potency was inconclusive: 0.141 µM [quencher, side channel, full curve, poor fit]. `COc1ccccc1N1CCN(C(=O)CN(c2ccccc2OC)S(=O)(=O)c2ccccc2)CC1` was tested, and the “activity change, negative = inhibition” value was inactive: 0.913%. In the case of `CCOc1c2ccoc2nc2c(OC)c(OC)ccc12`, the Potency is reported as inconclusive: 28.2 µM [quencher, side channel, partial curve]. With `CCn1cc(C(=O)N2CCN(c3ccc([N+](=O)[O-])cc3)CC2)c(=O)c2ccc(C)nc21` the Potency was inconclusive: 15.8 µM [quencher, side channel, partial curve]. In the case of `CCC(=O)N(CCc1ccccc1)Cc1cc2ccc(OC)cc2[nH]c1=O`, the Potency is reported as inconclusive: 3.16 µM [quencher, side channel, full curve]. In the case of `CC(C)CC(=O)Nc1cccc(-c2cn3ccsc3n2)c1`, the “activity change, negative = inhibition” value is reported as inactive: 4.65%. `O=c1c2ccccc2cnn1Cc1n[nH]c(=S)n1-c1cc(Cl)cc(Cl)c1` was tested, and the “activity change, negative = inhibition” value was inactive: 1.21%. For `O=C(O)c1ccc(Sc2ccccn2)c([N+](=O)[O-])c1`, the Potency was inconclusive: 14.1 µM [quencher, side channel, partial curve]. With `OC(COc1ccccc1)CN1CCN(C(c2ccccc2)c2ccccc2)CC1` (configuration not stated) the “activity change, negative = inhibition” value was inactive: -13.1%. `CC(=O)C1=C(O)C(=O)N(c2nccs2)C1c1ccccc1F` (configuration not stated) was tested, and the Potency was inconclusive: 20 µM [quencher, partial curve]. For `Brc1ccc(-n2c(SCc3nc4ccccc4[nH]3)nnc2-c2ccncc2)cc1`, the Potency was inconclusive: 17.8 µM [fluorescent, side channel, partial curve]. For `COc1ccccc1-c1noc(CCC(=O)Nc2cc(C(F)(F)F)ccc2Cl)n1`, the “activity change, negative = inhibition” value was inactive: 1.48%. In the case of `COc1ccccc1N1C(=O)c2cccc3c(N(C)CCO)ccc(c23)C1=O`, the Potency is reported as inconclusive: 3.98 µM [quencher, side channel, full curve]. With `O=[N+]([O-])c1ccc(CSC2=NCCN2)cc1` the Potency was inconclusive: 31.6 µM [quencher, side channel, single point]. With `COc1ccc([C@]23Cc4ccccc4C(O2)c2c(cc(C)n(Cc4ccccc4)c2=O)O3)cc1` the Potency was inconclusive: 3.16 µM [quencher, side channel, partial curve]. `COc1cccc(CNS(=O)(=O)c2ccc(S(=O)(=O)N3CCCC3)cc2)c1` was tested, and the Potency was inconclusive: 28.2 µM [quencher, side channel, partial curve]. `O=[N+]([O-])c1ccc(O)c(C=Nc2ccc3oc(Cc4ccc(Cl)cc4)nc3c2)c1` was tested, and the Potency was inconclusive: 28.2 µM [quencher, side channel, single point]. With `CCn1c(O)c(N=NC(=O)CNC(=O)c2ccccc2F)c2ccccc21` the Potency was inconclusive: 10 µM [quencher, side channel, partial curve]. In the case of `Cc1cnc(N2C(=O)c3ccc([N+](=O)[O-])cc3C2=O)s1`, the Potency is reported as inconclusive: 14.1 µM [quencher, partial curve]. `CCOc1ccc(-c2c(=O)n(OCC)c3ccccc3[n+]2[O-])cc1` was tested, and the Potency was inconclusive: 12.6 µM [quencher, side channel, partial curve]. For `COc1ccccc1N=Nc1c(C)[nH][nH]c1=O`, the Potency was inconclusive: 11.2 µM [quencher, side channel, partial curve]. With `Cc1cccc(S(=O)(=O)Nc2nc3ccccc3nc2OC(C)C)c1` the Potency was inconclusive: 35.5 µM [quencher, side channel, single point]. In the case of `CS(=O)(=O)c1ccc2nc(NC(=O)CCC(=O)c3cccs3)sc2c1`, the “activity change, negative = inhibition” value is reported as inactive: 29.7%. In the case of `Cc1cc(/C=N/n2cnnc2)c(O)c([N+](=O)[O-])c1`, the Potency is reported as inconclusive: 14.1 µM [quencher, side channel, partial curve, poor fit]. In the case of `NC(N)=NS(=O)(=O)c1ccc(N=C2C(=O)Nc3ccccc32)cc1`, the Potency is reported as inconclusive: 5.01 µM [quencher, side channel, full curve]. `O=C(c1cnn2c(C(F)(F)F)cc(-c3ccc(Br)cc3)nc12)N1CCOCC1` was tested, and the Potency was inconclusive: 8.91 µM [quencher, side channel, single point]. `O=C(NCCO)c1cc2ccccc2c(=O)s1` was tested, and the Potency was inconclusive: 17.8 µM [quencher, side channel, partial curve]. In the case of `O=[N+]([O-])c1cc(F)c(N2CCCCC2)cc1N1CCOCC1`, the Potency is reported as inconclusive: 28.2 µM [quencher, side channel, partial curve]. With `COC(=O)c1ccc(NC(=O)c2cccc(C)c2)cc1` the “activity change, negative = inhibition” value was inactive: 0.0123%. With `CC(Sc1nnc(NC2CCCCC2)s1)C(=O)Nc1ccc2c(c1)C(=O)c1ccccc1C2=O` (configuration not stated) the Potency was inconclusive: 28.2 µM [quencher, side channel, single point]. With `O=C(NCCc1ccccc1)c1coc(=O)c(Br)c1` the Potency was inconclusive: 14.1 µM [quencher, side channel, partial curve]. For `O=C(C[n+]1ccc(/C=N/O)cc1)N1CCCCC1`, the Potency was inconclusive: 3.55 µM [quencher, side channel, full curve]. With `O=C(O)COc1ccc(-c2nccc(-c3cccs3)n2)cc1` the Potency was inconclusive: 39.8 µM [quencher, single point]. In the case of `O=C(NN=C(Cc1ccccc1)Cc1ccccc1)c1ccc(F)cc1`, the “activity change, negative = inhibition” value is reported as inactive: -3.11%. With `c1coc(-c2nc3ccccc3nc2-c2ccco2)c1` the Potency was inconclusive: 11.2 µM [quencher, side channel, partial curve]. In the case of `N/C(Cc1ccc([N+](=O)[O-])cc1)=N\OC(=O)c1ccc([N+](=O)[O-])cc1`, the Potency is reported as inconclusive: 3.55 µM [quencher, side channel, full curve]. `O=c1c(-c2ccco2)[n+]([O-])c2ccccc2n1OCc1ccccc1F` was tested, and the Potency was inconclusive: 2.51 µM [quencher, single point]. In the case of `COc1ccc(S(=O)(=O)NCC2CCC(C(=O)N3CCC4(CC3)OCCO4)CC2)cc1` (configuration not stated), the “activity change, negative = inhibition” value is reported as inactive: 3.34%. For `Nc1nc(Sc2ccc([N+](=O)[O-])cc2[N+](=O)[O-])n[nH]1`, the Potency was inconclusive: 14.1 µM [activator, partial curve, poor fit]. In the case of `CCCc1cc(Nc2c(C)n(C)n(-c3ccccc3)c2=O)n2c(nc3ccccc32)c1C#N`, the Potency is reported as inconclusive: 31.6 µM [quencher, side channel, single point]. `O=C(/C=C/c1cccc([N+](=O)[O-])c1)Nc1ccc(NC(=O)c2cccs2)cc1` was tested, and the “activity change, negative = inhibition” value was inactive: -4.75%. For `O=C(C1CCN(S(=O)(=O)c2cccc3nsnc23)CC1)N1CCc2ccccc21`, the Potency was inconclusive: 12.6 µM [quencher, side channel, partial curve]. In the case of `COc1ccccc1CNC(=O)CSc1ccc(-c2cccs2)nn1`, the “activity change, negative = inhibition” value is reported as inactive: 2.71%. In the case of `O=C(C1CCN(c2ncnc3c2nc2n3CCCCC2)CC1)N1CCN(c2cccc(Cl)c2)CC1`, the “activity change, negative = inhibition” value is reported as inactive: -6.86%. In the case of `Cc1ccc2oc(-c3cccc(NC(=O)c4cc(-n5cnnc5)ccc4Cl)c3)nc2c1`, the Potency is reported as inconclusive: 1.26 µM [quencher, side channel, full curve, poor fit]. For `COc1ccc(OC)c(NC(=O)CN(C)CCOc2ccc(Br)cc2)c1`, the “activity change, negative = inhibition” value was inactive: 6.51%. `Cc1scc(C(=O)N/N=C/c2ccc([N+](=O)[O-])o2)c1C` was tested, and the Potency was inconclusive: 7.94 µM [quencher, side channel, partial curve]. In the case of `CC(C)CCN1CCN(CCCc2ccccc2)CC1CCO` (configuration not stated), the “activity change, negative = inhibition” value is reported as inactive: -4.4%. In the case of `COc1cccc(CCNC(=O)c2cccc(NC(=O)C3=C(C)OCCS3)c2)c1`, the “activity change, negative = inhibition” value is reported as inactive: -1.35%. `O=C(NC(=S)Nc1ccccc1N1CCOCC1)c1ccc(-c2cc(Cl)ccc2Cl)o1` was tested, and the Potency was inconclusive: 63.1 µM [fluorescent, side channel, partial curve, poor fit]. With `O=C(/C=C/c1ccccc1Cl)Nc1cccnc1` the Potency was inconclusive: 22.4 µM [quencher, side channel, single point]. In the case of `Cc1nn(-c2ccccc2)c(=S)n1-c1ccccc1`, the “activity change, negative = inhibition” value is reported as inactive: -10.6%. `N#Cc1c(-c2cccnc2)c2c([nH]c1=O)-c1ccccc1OC2` was tested, and the Potency was inconclusive: 25.1 µM [quencher, side channel, partial curve]. `Cn1c2ccccc2c(=O)c2ccc(C#Cc3ccccn3)cc21` was tested, and the Potency was inconclusive: 17.8 µM [quencher, side channel, partial curve]. `O=[N+]([O-])c1ccc(C2CN=C(Nc3ccccc3)S2)cc1` (configuration not stated) was tested, and the Potency was inconclusive: 25.1 µM [quencher, partial curve].
